What all share (experiment): Primary Screen for Target Class Profiling of Small Molecule Inhibitors of Methyltransferases
Assay [1] concerns the target Glycine N-methyltransferase (Homo sapiens) (UniProt Q14749). Particulars: purified enzyme, MTase-Glo SAH luminescence; measured here: GNMT inhibition; at 40 µM; stronger effect = lower value. An outline of the steps:
(§1)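 Each enzyme was assayed with SAM and its substrate. SAH formation detected by MTase-Glo luminescence; single-point 40 uM screen[…].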

Assay [2] addresses Guanidinoacetate N-methyltransferase (Homo sapiens) (UniProt Q14353). The conditions noted are these: purified enzyme, MTase-Glo SAH luminescence; measured here: GAMT inhibition; at 40 µM; stronger effect = lower value. In a few lines:
as §1

In assay [3] the target is Histamine N-methyltransferase (Homo sapiens) (UniProt P50135). The conditions noted are these: purified enzyme, MTase-Glo SAH luminescence; measured here: HNMT inhibition; at 40 µM; stronger effect = lower value. An outline of the steps: as §1
Assay [4] addresses Nicotinamide N-methyltransferase (Homo sapiens) (UniProt P40261). Particulars: purified enzyme, MTase-Glo SAH luminescence; measured here: NNMT inhibition; at 40 µM; stronger effect = lower value. In a few lines: as §1
Assay [5] has as its target Phenylethanolamine N-methyltransferase (Homo sapiens) (UniProt P11086). Particulars: purified enzyme, MTase-Glo SAH luminescence; measured here: PNMT inhibition; at 40 µM; stronger effect = lower value. An outline of the steps:
as §1

The source of these data is PubChem BioAssay AID1745853 (National Center for Advancing Translational Sciences (NCATS), 2022).

The list shows a part of the results. Shown are side measurements of this screen, not its main read-out; they come without a call.
% is scaled to controls: 0 for no effect and ±100 for the full control effect.

For the compound `CCc1ccccc1N1C(=O)c2c(C(=O)OC)ncn2CC1(C)C(=O)NCc1ccccc1` (stereo not given), the activity change, negative = inhibition in assay [1] is -7.17%; in assay [2], 0.186%; in assay [3], -4.51%; in assay [4], -2.84%; in assay [5] it was -4.12%.

Turning to `CCN1CCN(S(=O)(=O)c2cc(-c3nnc(-c4ccccc4)o3)ccc2OC)CC1`, the activity change, negative = inhibition in assay [1] was 1.63%; in assay [2], 3.85%; in assay [3], 2.41%; in assay [4], 0.352%; in assay [5], 1.72%.

Consider `Cc1ccc(C)c(Cn2nc3n(CC(C)C)c(=O)c4ccc(C(=O)NC(C)C)cc4n3c2=O)c1`, for which the activity change, negative = inhibition in assay [1] is 4.16%; in assay [2], 0%; in assay [3] it was 4.57%; in assay [4] it was 1.04%; in assay [5] it was 3.37%.

For the compound `Cc1nn(C(=O)CCC(=O)N2CCC(Cc3nncn3CC3CC3)CC2)c2ccccc12`, the activity change, negative = inhibition in assay [1] was -7.08%; in assay [2] it was -4.37%; in assay [3], -3.55%; in assay [4] it was -76.2%; in assay [5], -5.71%.

Regarding `Cc1cc(C)cc(N2C(=O)c3cc4occc4n3CC2(C)C(=O)NC2CCCCC2)c1` (stereo not given), the activity change, negative = inhibition in assay [1] is 2.96%; in assay [2], 6.85%; in assay [3], 0.819%; in assay [4], 8.44%; in assay [5], 1.85%.

As for `O=C(Nc1ccc(F)c(Cl)c1)c1cnc(-c2ccccc2)nc1-c1ccncc1`, the activity change, negative = inhibition in assay [1] was -2.98%; in assay [2], 0.393%; in assay [3], 0.949%; in assay [4], -5.39%; in assay [5], 11.8%.

In the case of `O=C(NCc1cccc(O)c1)Nc1nc(-c2ccncc2)cs1`, the activity change, negative = inhibition in assay [1] was -21.8%; in assay [2], -7.25%; in assay [3] it was -11.8%; in assay [4] it was -28.3%; in assay [5], -17.5%.

On to `CCC1(C(=O)NCCc2ccccc2)CCCCC(=O)N1` (stereo not given), for which the activity change, negative = inhibition in assay [1] was -0.521%; in assay [2] it was -1.12%; in assay [3] it was -0.053%; in assay [4], -6.22%; in assay [5], -5.92%.

Consider `C=C[C@@](C)(CCC=C(C)C)O[C@@H]1O[C@H](CO[C@@H]2OC[C@H](O)[C@H](O)[C@H]2O)[C@@H](O)[C@H](O)[C@H]1O`, for which the activity change, negative = inhibition in assay [1] is 3.1%; in assay [2], 3.44%; in assay [3], 4.08%; in assay [4], -8.54%; in assay [5] it was 5.31%.

On to `C=CCCOC(=O)N1C[C@@H](CO)[C@@H]2Oc3ccc(Cl)cc3[C@@H]21`, for which the activity change, negative = inhibition was -4.72% in assay [1]; -2.36% in assay [2]; -2.26% in assay [3]; -12.4% in assay [4]; -1.02% in assay [5].

As for `COc1cc(C(=O)NC2CCN(C)CC2)ccc1Nc1ncc2c(n1)N(C1CCCC1)CC(F)(F)C(=O)N2C`, the activity change, negative = inhibition was -29.9% in assay [1]; -28.2% in assay [2]; -50.5% in assay [3]; -71.1% in assay [4]; -58.1% in assay [5].

For the compound `O=C(C1CCCC1)N1CCC(Oc2cccnc2)C1` (stereo not given), the activity change, negative = inhibition in assay [1] was -1.84%; in assay [2] it was -3.45%; in assay [3], -1.84%; in assay [4], -19.6%; in assay [5], -0.854%.

Turning to `COC(=O)CCc1ccc(OCC(O)CNC(C)C)cc1` (stereo not given), the activity change, negative = inhibition in assay [1] is 0.598%; in assay [2], -10.3%; in assay [3] it was -4.88%; in assay [4], -15.7%; in assay [5], -10.1%.

As to `CCOC(=O)c1oc2cc3sc(N4CCCCC4)nc3cc2c1C`, the activity change, negative = inhibition in assay [1] is -5.69%; in assay [2] it was 0.592%; in assay [3], 4%; in assay [4], 2.88%; in assay [5], -8.21%.

For `Cc1cccc(C2c3cccn3-c3sc4c(c3CN2C(=O)Nc2ccc(F)cc2)CCCC4)c1` (stereo not given), the activity change, negative = inhibition in assay [1] was -0.422%; in assay [2], 0%; in assay [3], -0.252%; in assay [4], -1.32%; in assay [5], 1.49%.

For `COC(=O)c1cc2n(n1)CC(C)(C(=O)NC1CCCCC1)N(c1cc(Cl)ccc1C)C2=O` (stereo not given), the activity change, negative = inhibition in assay [1] was 1.59%; in assay [2], 0.863%; in assay [3], -12.7%; in assay [4], 1.39%; in assay [5] it was 0.693%.

`O=C1CN(Cc2ccc(Cl)cc2)S(=O)(=O)c2ccccc2N1Cc1ccccc1`: the activity change, negative = inhibition in assay [1] was 4.9%; in assay [2], 0%; in assay [3] it was 2.54%; in assay [4] it was -0.953%; in assay [5] it was -0.191%.

`Nc1nc(O)c(C2=C3C(=Nc4ccccc43)C(=O)NCC2)[nH]1`: the activity change, negative = inhibition in assay [1] is 3.52%; in assay [2] it was 6.49%; in assay [3], 11.4%; in assay [4], -10.6%; in assay [5], 7.17%.

Regarding `O=C(NCc1ccncc1)c1ccc2c(=O)nc3c(-c4cccc(F)c4)n[nH]n3c2c1`, the activity change, negative = inhibition in assay [1] is -18.3%; in assay [2] it was 1.82%; in assay [3], -2.45%; in assay [4], -4.8%; in assay [5], -2.6%.

Regarding `COc1ccccc1CN1C(=O)c2cc3ccccc3n2CC1(C)C(=O)NC1CCCCCC1` (stereo not given), the activity change, negative = inhibition in assay [1] is 4.32%; in assay [2], 0%; in assay [3] it was 1.72%; in assay [4], 3.38%; in assay [5] it was -1.41%.

Take `COc1ccc(-c2nnc3n(Cc4ccccc4)c(=O)c4ccccc4n23)c(OC)c1`: the activity change, negative = inhibition in assay [1] is -7.75%; in assay [2] it was 3.18%; in assay [3], -0.04%; in assay [4], -9.03%; in assay [5], -2.01%.

`CCc1cc2c(cc3n2CC(C)(C(=O)NC2CCCCCC2)N(CCCN2CCCC2)C3=O)s1` (stereo not given): the activity change, negative = inhibition in assay [1] was -2.97%; in assay [2] it was 4.63%; in assay [3], -4.1%; in assay [4] it was -15.2%; in assay [5], -1.12%.

Take `CN1C(C(=O)Nc2ccccn2)=C(O)c2ccccc2S1(=O)=O`: the activity change, negative = inhibition was -6.23% in assay [1]; 13.4% in assay [2]; 6.22% in assay [3]; -3.14% in assay [4]; 4.42% in assay [5].

With `COC(=O)[C@H](NC(=O)[C@@H]1C[C@H](NC(=O)Nc2ccc(OC)cc2)CN1C(=O)CSC)C(C)C`, the activity change, negative = inhibition in assay [1] was -3.42%; in assay [2], -4.05%; in assay [3], -0.545%; in assay [4], -10.6%; in assay [5], -3.96%.

In the case of `CCCN1C(=O)c2c(C(=O)NCc3ccc(F)cc3)ncn2CC1(C)C(=O)NCCC(C)C` (stereo not given), the activity change, negative = inhibition in assay [1] was -2.05%; in assay [2] it was 0.738%; in assay [3] it was -2.42%; in assay [4], -5.35%; in assay [5], 1.79%.

As to `COCCOC(=O)C1=C(C)NC(C)=C(C(=O)OC(C)C)C1c1cccc([N+](=O)[O-])c1` (stereo not given), the activity change, negative = inhibition in assay [1] is -10%; in assay [2] it was 9.35%; in assay [3], 5.25%; in assay [4], -16.3%; in assay [5] it was -4.45%.

Take `NCCS`: the activity change, negative = inhibition is 2.91% in assay [1]; 14.4% in assay [2]; -0.25% in assay [3]; -1.25% in assay [4]; 5.31% in assay [5].

For `COc1ccc(NC(=O)c2ccc3c(c2)n(C)c(=O)c2ccnn23)cc1OC`, the activity change, negative = inhibition in assay [1] is -32.1%; in assay [2] it was -8.63%; in assay [3], -4.42%; in assay [4] it was -16%; in assay [5] it was -12.2%.

As to `Cc1nc(NC(=O)N2CCCC2C(N)=O)sc1-c1csc(C(C)(C)C)n1` (stereo not given), the activity change, negative = inhibition in assay [1] is -3.58%; in assay [2], -0.715%; in assay [3] it was -0.144%; in assay [4], -16.2%; in assay [5], -1.89%.

In the case of `Cc1nn(-c2ccccc2)c2c1C(C)N(C1CCN([S+](=O)([O-])c3c(C)noc3C)C1)C2=O` (stereo not given), the activity change, negative = inhibition in assay [1] is -8.72%; in assay [2], -7.62%; in assay [3] it was -12%; in assay [4] it was -22.2%; in assay [5], -16.4%.
